Laboratory results reported in PubChem BioAssay AID1508642 (National Center for Advancing Translational Sciences (NCATS), 2021).
The campaign covered roughly 43,000 compounds. About 200 (0.47%) were called active. Not shown: some 12% with an inconclusive outcome. The call rests on the fitted dose curve; in most records, active means well fitted cell-killing curve with a large enough effect; inconclusive means small, poorly fitted or top-dose-only effect, or effect the other way; inactive means flat fitted curve, though single readings scatter. The list shows a part of the results.

Experiment: Cell viability qHTS assay in S16 Pmp22-F2sN cells; further: nearly all actives have a fitted effect of over 65% in size
Details: S16 Pmp22-F2sN Schwann cells (luciferase reporters placed in the Pmp22 gene) viability, CellTiter-Glo, 24 h; series mostly up to 57.5 µM; activity change, negative = cytotoxicity: at the top concentration
How it was run: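 S16 Schwann cells carrying the Pmp22-F2sN reporter, seeded in 1536-well format, were exposed to library compounds for 24 h at 37C. Viability was read as CellTiter-Glo luminescence after 15 min at room temperature.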
On the % scale 0 is the no-effect control and ±100 the full control effect.

SMILES | activity change, negative = cytotoxicity
O=S(=O)(c1ccccc1)c1nc(-c2cccc(Cl)c2)oc1NCc1ccccc1 | inactive: 13%
COc1ccc(Br)c2c1-c1nc(NC(=O)c3ccccc3SC)sc1C2 | inactive: 12%
CCOc1ccc(N2CC(c3nc4ccccc4n3CCCOc3ccc(OC)cc3)CC2=O)cc1 (stereo not given) | inactive: -17.6%
COCCNC(=O)CSc1nnc(-c2ccc(OC)c(OC)c2)c(-c2ccc(OC)c(OC)c2)n1 | inactive: -15.8%
Cc1cccc(C2NC(=O)c3c(sc4c3CCN(C)C4)N2)c1O (stereo not given) | inactive: -2.06%
CCOC(=O)c1ccc(NC2=CC(c3ccc(Br)cc3)N(c3ccc(C(=O)OCC)cc3)C2=O)cc1 (stereo not given) | inactive: 7.37%
COC(=O)c1cc(Cl)c(NC(=O)/C=C/c2ccc(Cl)cc2Cl)cc1OC | inactive: 1.58%
CCOC(=O)c1ccc(NC(=O)C(=O)NCc2ccco2)cc1 | inactive: 3.45%
COc1cccc(Cc2nc3ccccc3nc2SCC(=O)N2CCc3ccccc32)c1 | inactive: 7.67%
CCOc1ccccc1NC(=O)C1CCN(S(=O)(=O)c2ccc(Br)cc2)CC1 | inactive: -3.22%
Cc1ccc(-n2nc(C(=O)N3CCCCC3C)c(=O)n(C)c2=O)cc1 (stereo not given) | inactive: 4.41%
Cc1nn(CCCC(=O)NCc2ccccc2)c(=O)c2c1sc1ccccc12 | inactive: 14.1%
CC1CN(C(=O)CCC(=O)NCc2cccs2)c2ccccc2O1 (stereo not given) | inactive: 3.74%
COc1ccc(NC(=O)c2c(NCc3ccc(C)o3)sc3c2CCC(C)C3)cc1 (stereo not given) | inactive: -23.2%
Cc1ccc(S(=O)(=O)c2cn(C)c3cc(N4CCN(c5ccccc5)CC4)c(F)cc3c2=O)cc1 | inactive: -4.91%
CCOC(=O)N1CCc2c(sc3c2c(=O)n(Cc2ccccc2)c(=O)n3Cc2cccc(Cl)c2)C1 | inactive: -12.9%
COc1cc(NC(=O)C2=C(C)Nc3nnnn3C2c2ccc(SC)cc2)c(OC)cc1Cl (stereo not given) | inactive: 0.0199%
COc1ccc(NC(=O)c2c(NC(=O)COc3ccc(Cl)cc3)sc3c2CCCCC3)cc1 | inactive: 20.5%
CCOC(=O)CCN(Cc1ccccc1)S(=O)(=O)c1csc(C(N)=O)c1 | inactive: -5.07%
CCN(C(=O)Cn1nc2c3cc(F)ccc3n(Cc3cccc(C)c3)cc-2c1=O)c1cccc(C)c1 | inactive: 5.84%

SMILES | activity change, negative = cytotoxicity
O=C(NCCCN1CCN(c2ccc(F)cc2)CC1)c1cc2c(s1)-c1ccccc1OC2 | inactive: -10.6%
CCOC(=O)c1ccc2c(c1)N(CC(=O)Nc1cc(F)ccc1F)C(=O)c1ccccc1S2 | inactive: 14.6%
CSc1ccccc1NC(=O)C1=CC(c2ccc3c(c2)OCO3)=NS(=O)(=O)N1C | inactive: -11.1%
CC1=C(C(N)=O)C(c2cccc(C)c2)n2nc(-c3ccc(Cl)cc3)nc2N1 (stereo not given) | inactive: -15.8%
COc1ccc(Cn2nnc3c(=O)[nH]c(C4CCCN(C(=O)c5ccccc5Cl)C4)nc32)cc1OC (stereo not given) | inactive: 2.15%
Cc1ccc(C)c(NC(=O)C(=O)NCC(c2cccnc2)N2CCN(c3ccc(F)cc3)CC2)c1 (stereo not given) | inactive: -28.4%
N#Cc1cc2c(=O)n3ccccc3nc2n(-c2nnc(SCc3ccc(F)cc3)s2)c1=O | inactive: -14%
COc1cc(OC)c(NC(=O)N2CCOc3ccc(C)cc32)cc1Cl | inactive: 3.16%
COc1ccc(-c2[nH]c(-c3ccc(OC)c(OC)c3)nc2SCC(=O)Nc2ccccc2)cc1 | inactive: -2.72%
Cc1cccc(NC(=O)c2oc3ccc(S(=O)(=O)N4CCCCC4)cc3c2C)c1C | inactive: -9.66%
O=C(c1cccc(Cl)c1)N1CCC(c2nc3c(nnn3Cc3ccc(F)cc3F)c(=O)[nH]2)CC1 | inactive: -26.1%
COc1cc(C(=O)Nc2ccccc2OCc2cc(=O)n3cc(C)sc3n2)cc(OC)c1OC | inactive: 0.328%
COc1ccc(C(=O)c2cn(Cc3ccccc3F)c3ccc(F)cc3c2=O)cc1 | inactive: -6.43%
CCOc1ccccc1C(=O)N(Cc1ccc(N(C)C)cc1)Cc1ccco1 | inactive: 1.94%
Cn1ccc2cc(S(=O)(=O)N3CCCN(C(=O)Nc4ccc(Br)cc4)CC3)ccc21 | inactive: -13.6%
COc1ccc(CCNC(=O)CSc2nnc(-c3ccc(C)cc3)c(-c3ccc(C)cc3)n2)cc1OC | inactive: -0.88%
Cc1ccc(-c2noc(-c3ccc(NCC4CCCO4)c([N+](=O)[O-])c3)n2)cc1 (stereo not given) | inactive: 10.6%
CCCCOc1cccc(C(=O)N(Cc2ccc(Cl)cc2)C2CCS(=O)(=O)C2)c1 (stereo not given) | inactive: -18.3%
COc1ccccc1NC(=O)N1CC=C(c2c[nH]c3ccccc23)CC1 | inactive: 21.6%
CCOc1ccc(C(=O)NCCS(=O)(=O)N2CCN(c3cccc(Cl)c3)CC2)cc1 | inactive: -9.76%

SMILES | activity change, negative = cytotoxicity
Cc1cc(=O)[nH]c2nnc(SCCC(C)C)n12 | inactive: 4.52%
COc1cccc(C2=NN(S(C)(=O)=O)C(c3cn(-c4ccccc4)nc3-c3cccs3)C2)c1 (stereo not given) | inactive: -1.03%
COc1ccc(CNC(=O)CN(C)c2nn3c(=O)cc(C)nc3s2)cc1 | inactive: 13%
CC(=O)c1ccc(N2CCN(C(=O)CS(=O)(=O)c3cccc4nsnc34)CC2)cc1 | inactive: -4.42%
CCOC(=O)CC(NC(=O)CCc1c(C)nc2cc(-c3ccccc3)nn2c1C)c1ccc(C)cc1 (stereo not given) | inactive: -2.46%
N#Cc1ccccc1NC(=O)C(=O)NCC(c1cccnc1)N1CCc2ccccc21 (stereo not given) | inactive: -24.6%
COc1cc(OC)c(NC(=O)C(C)n2nc(-c3ccc(C)cc3)c3c(c2=O)CCCC3)cc1Cl (stereo not given) | inactive: -27.7%
O=C(Nc1cc(F)ccc1F)c1cnn2c(C(F)F)cc(-c3ccccc3)nc12 | inactive: -5.44%
COC(=O)c1ccc(NC(=O)CSc2nc3cc4ccccc4cc3[nH]2)cc1 | inactive: -14.2%
Cc1ccc(S(=O)(=O)c2nnn3c2nc(N2CCN(c4cccc(C)c4C)CC2)c2ccccc23)cc1C | inactive: -1.27%
COc1ccccc1-c1cc2nc(C)c(CCC(=O)NC3CCCCC3)c(C)n2n1 | inactive: -1.68%
Cc1ccc(NC(=O)C2CCCN(c3ncnc4onc(C)c34)C2)cc1Cl (stereo not given) | inactive: -8.91%
CCn1cc(C(=O)NCc2ccccc2Cl)c(=O)c2cc(S(=O)(=O)N3CCCCCC3)ccc21 | inactive: 8.29%
CCOc1ccc(Nc2oc(-c3ccc(COc4ccc(C)cc4)o3)nc2C#N)cc1 | inactive: 1.43%
Cc1ccc(-c2nc(CNC(=O)NC3CCCCC3)c(C)o2)cc1 | inactive: -18.6%
COc1ccc(CNc2nc(-c3ccco3)nn2C(=O)c2ccccc2C)cc1 | inactive: 7.79%
CC(=O)c1cccc(NC(=O)Nc2cc3c(cc2N2CCCC2)n(C)c(=O)n3C)c1 | inactive: -2.12%
CCc1ccc(C(=O)Nc2cccc(-c3nc4cc(C(C)C)ccc4o3)c2)cc1 | inactive: 20.3%
Cc1ccc(Cl)cc1NC(=O)c1ccc2nc(CCc3ccccc3)oc2c1 | inactive: 0.953%
Cc1ccc(NC(=O)Cn2c(=O)cc(-c3ccccc3)c3c(C)nn(C)c32)c(Cl)c1 | inactive: 7.12%
